The whole screen tested about 310,000 compounds, of which about 2,200 (0.71%) showed an effect of 50% or more. The effect is printed as a negative number. The list shows a part of the results.
What follows are molecules tested against human ether-à-go-go-related gene (hERG) potassium channel (human, UniProt Q12809) (assay: primary screen, population patch clamp on CHO cells stably expressing hERG).
Sequence of human ether-à-go-go-related gene (hERG) potassium channel (Q12809 whole entry, looked up): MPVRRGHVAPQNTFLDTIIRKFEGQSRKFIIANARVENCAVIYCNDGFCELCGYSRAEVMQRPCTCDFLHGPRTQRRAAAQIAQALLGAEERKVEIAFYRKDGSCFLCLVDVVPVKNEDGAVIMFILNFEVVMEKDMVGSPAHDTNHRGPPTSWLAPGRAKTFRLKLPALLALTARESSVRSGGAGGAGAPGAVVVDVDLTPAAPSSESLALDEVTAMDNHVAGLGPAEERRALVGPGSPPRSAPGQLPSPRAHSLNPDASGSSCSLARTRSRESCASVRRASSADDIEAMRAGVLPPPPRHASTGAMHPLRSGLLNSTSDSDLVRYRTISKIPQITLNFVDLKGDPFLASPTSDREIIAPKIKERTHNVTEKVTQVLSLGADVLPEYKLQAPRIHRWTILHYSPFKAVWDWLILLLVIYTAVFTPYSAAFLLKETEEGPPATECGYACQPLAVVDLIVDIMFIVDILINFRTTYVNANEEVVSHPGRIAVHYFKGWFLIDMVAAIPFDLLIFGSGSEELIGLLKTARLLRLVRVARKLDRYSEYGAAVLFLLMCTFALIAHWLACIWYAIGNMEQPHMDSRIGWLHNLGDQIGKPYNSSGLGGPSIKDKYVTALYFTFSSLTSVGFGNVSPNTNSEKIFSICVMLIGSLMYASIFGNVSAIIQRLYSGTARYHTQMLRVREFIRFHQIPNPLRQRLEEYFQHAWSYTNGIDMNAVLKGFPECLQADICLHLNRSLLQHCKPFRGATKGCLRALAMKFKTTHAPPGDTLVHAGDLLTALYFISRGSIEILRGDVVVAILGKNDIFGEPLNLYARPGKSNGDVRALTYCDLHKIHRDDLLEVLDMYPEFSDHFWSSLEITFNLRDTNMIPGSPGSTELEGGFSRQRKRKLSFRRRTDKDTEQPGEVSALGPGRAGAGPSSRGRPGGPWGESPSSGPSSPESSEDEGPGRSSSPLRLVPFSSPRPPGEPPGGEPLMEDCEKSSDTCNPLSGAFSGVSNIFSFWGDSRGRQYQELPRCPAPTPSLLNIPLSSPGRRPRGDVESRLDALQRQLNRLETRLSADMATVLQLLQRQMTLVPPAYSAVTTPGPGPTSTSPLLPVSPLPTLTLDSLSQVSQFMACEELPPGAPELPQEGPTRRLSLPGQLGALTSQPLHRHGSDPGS

| SMILES | hERG current change (%, negative = inhibition) at 1uM |
| --- | --- |
| CC1(C)Oc2ccc3ccc(=O)oc3c2/C(=C/NNC(N)=S)C1=O | 9.83% |
| Cc1cc(C)n2nc(-c3sccc3-n3cccc3)cc2n1 | 12.3% |
| CCOc1ccc(/C=C/C(=O)c2cc(Br)ccc(=O)c2O)cc1 | -0.499% |
| CCOC(=O)C1(CCCc2ccccc2)CCN(C2CCC2)CC1 | -57.1% |
| Cc1cc(Cl)ccc1NC(=O)CCN1C(=O)NC(C)(C)C1=O | 6.2% |
| Cc1cc(C)c2nc(N3CCOCC3)c(C#N)cc2c1 | 24.1% |
| CC1=C(C(N)=O)C(c2ccccc2F)n2nc(CCCO)nc2N1 (centres unmarked) | 15.7% |
| O=c1ccc(N=Nc2ccccc2)ccc1O | 11.8% |
| COc1ccccc1CNC(=O)C(NC(=O)c1ccc(C)cc1)C(C)C (centres unmarked) | 3.01% |
| CCOC(=O)N1CCN(CC(O)COc2ccccc2C(C)CC)CC1.Cl (centres unmarked) | 10.4% |
| Nc1c(C(=O)NCc2ccco2)sc2nc3c(cc12)C(=O)CCC3 | -10.5% |
| COc1ccc(CC(=O)N(C)CC(=O)Nc2c(C)cccc2C)cc1S(=O)(=O)N1CCOCC1 | 5.42% |
| Cc1cc(C)n2cc(CSc3nnnn3-c3ccccc3)nc2n1 | -5.94% |
| Cc1ccccc1NC(=O)c1ccccc1NC(=O)c1cccs1 | 13.9% |
| COc1cccc(NC(=O)[C@@H](NC(=O)N2C[C@H]3C[C@@H](C2)c2cccc(=O)n2C3)C(C)C)c1 | 17.5% |
| O=C(NCc1ccco1)c1ccc(COCC(F)(F)F)cc1 | -5.24% |
| CCCc1cc(=O)[nH]c(SCC(=O)NC2CCCc3ccccc32)n1 (centres unmarked) | 4.91% |
| O=C(COC(=O)C1CCN(c2ccc(C(F)(F)F)cn2)CC1)c1ccc(Cl)cc1 | 14.6% |
| COc1ccc(/C=C2\SC(=O)N(CCC(=O)N3CCCCC3)C2=O)cc1OC | 9.83% |
| Cc1cc(C)n2nc(SCc3ccc(C#N)cc3)nc2n1 | 6.64% |
| COc1ccccc1N1CCN(C(c2cccs2)c2nnnn2C2CCCC2)CC1 (centres unmarked) | 11.6% |
| CC(=O)c1sc(N/N=C\c2ccccc2O)nc1C | 11.5% |

| SMILES | hERG current change (%, negative = inhibition) at 1uM |
| --- | --- |
| O=C(NC(Cc1c[nH]c2ccccc12)C(=O)NCc1ccc(F)cc1)OCc1ccccc1 (centres unmarked) | 5.45% |
| O=C(CSc1cn(Cc2cccc(F)c2)c2ccccc12)NCc1ccc(F)cc1 | 15.4% |
| CC(C)(O)CNC(=O)C(Cc1ccccc1)N1C(=O)c2ccccc2C1=O (centres unmarked) | 22.1% |
| Cc1cc(C(=O)NC2CCCc3c2cnn3-c2ccc(C(C)(C)C)cc2)n[nH]1 (centres unmarked) | 7.82% |
| Cc1ccc(NC(=S)N(CCN2CCOCC2)Cc2ccccc2F)cc1 | 5.79% |
| O=C(NCc1ccco1)C1(S(=O)(=O)c2ccc(Cl)cc2)CC1 | 11.5% |
| Cc1csc(NC(=O)CCn2c(=O)oc3ccccc32)n1 | 2.96% |
| COC(=O)CSc1cc([N+](=O)[O-])ccc1NC(=O)OC | 22.1% |
| CC(=O)c1ccc(N2C(=NC(=O)CCC3CCCC3)SC3CS(=O)(=O)CC32)cc1 (centres unmarked) | 13.6% |
| CCCNC(=O)N1[C@H]2CC[C@@H]1C(C(=O)OC)=C(c1ccc(-c3ccccc3)c(F)c1)C2 | 13.8% |
| Cc1cc([N+](=O)[O-])nn1CC(=O)N/N=C/c1ccccc1F | 8.66% |
| COC(=O)C(C)Oc1ccc(Cl)c(CN2OCC(C)(C)C2=O)c1 (centres unmarked) | 7.79% |
| CCCCC(=O)Nc1ncc(Br)s1 | 0.78% |
| O=C(CN1CCSCC1)N/N=C/c1cccc(Cl)c1 | 6.31% |
| CC(C)C(NC(=O)CSCc1ccc([N+](=O)[O-])cc1)C(C)C | -0.194% |
| O=C(CCCCn1c(=O)c2ccccc2n(Cc2ccc(F)cc2Cl)c1=O)NCc1ccco1 | 11.5% |
| CCN1CC(O)=C(c2nc3ccccc3s2)C1=N | 1.2% |
| O=[N+]([O-])c1cc(S(=O)(=O)N2CCCC2)ccc1NCCCN1CCOCC1 | -0.789% |
| O=C(CCSCc1ccccc1Cl)N1CCN(c2cccc(Cl)c2)CC1 | 7.76% |
| CCCOC1CCCN(C(=O)c2cc(COc3ccc(-n4cncn4)cc3)on2)C1 (centres unmarked) | -5.67% |
| CC1CC(C)CN(S(=O)(=O)c2cc3c4c(c2)CCC(=O)N4CCC3)C1 (centres unmarked) | 13% |
| Cc1cc2occ(CC(=O)NCc3cccs3)c2cc1C(C)C | -10.6% |

| SMILES | hERG current change (%, negative = inhibition) at 1uM |
| --- | --- |
| Cc1ccc2nc(C)c(C(=O)NN=C3CCCCCC3)n2c1 | 15.2% |
| COc1ccc(/C=C2/SC(=O)N(CCNC(=O)C3COc4ccccc4O3)C2=O)cc1 (centres unmarked) | 7.95% |
| CS(=O)(=O)Nc1ccc(C2=NN(C(=O)c3ccco3)C(c3ccccc3)C2)cc1 (centres unmarked) | -23.3% |
| CCOC(=O)c1c(C)[nH]c(C(=O)COC(=O)CN2C(=O)C3CCCCC3C2=O)c1C (centres unmarked) | 0.234% |
| O=S1(=O)CCOC[C@H](c2ccccc2)N1Cc1cccc(F)c1 | 8.89% |
| C=CCN(CC=C)CCOc1ccccc1[N+](=O)[O-].O=C(O)C(=O)O | 1.55% |
| CCCNC(=O)N1CCC(C(=O)c2ccc(Cl)cc2)CC1 | 5.87% |
| Cc1ccc(-c2n[nH]c(Cc3ccccc3)n2)cc1 | 6.85% |
| CCOc1ccc(CN2CCN(Cc3cccn3-c3nccs3)CC2CCO)cc1 (centres unmarked) | -84% |
| COC(=O)c1sccc1NC(=O)Nc1cc(C)ccc1C | 8.58% |
| Cc1cccc(C(=O)NC(C)C2CC3CCC2C3)c1 (centres unmarked) | 7.22% |
| CC(=O)N1CCc2cc(Br)cc(S(=O)(=O)NCc3ccc(Cl)cc3)c21 | -11.6% |
| Cc1ccc(-c2noc(CN3CCN(Cc4ccccc4)CC3)n2)cc1 | 3.56% |
| COc1ccc(/C=N/NC(=S)Nc2cc(S(=O)(=O)N3CCOCC3)ccc2N2CCOCC2)cc1O | 2.39% |
| Cc1cccc(-n2c(-c3csc(C(C)C)c3)n[nH]c2=S)c1 | -3.85% |
| NNC(=O)c1oc2ccccc2c1-n1cccc1 | 6.33% |
| CCN(CC)C(=O)CSc1ncnc2sc(C)c(C)c12 | -3.82% |
| CC1CC(C)CN(C(=O)COC(=O)CCCN2C(=O)c3cccc4cccc(c34)C2=O)C1 (centres unmarked) | 9.38% |
| COCCn1c(=O)c2c(nc3n2CCCN3CCc2ccc(OC)c(OC)c2)n(C)c1=O | 6.66% |
| Cc1cccc(N/N=C2/COC(C)(C)CC2=O)c1 | 8.8% |
| C=CCNC(=O)c1ccccc1NC(=O)C1CCN(S(=O)(=O)c2ccc(SC)cc2)CC1 | -56.8% |
| N#Cc1ccccc1NC(=O)COC(=O)C1CCN(C(=O)c2ccc(Cl)cc2)CC1 | -24.8% |

| SMILES | hERG current change (%, negative = inhibition) at 1uM |
| --- | --- |
| COc1ccccc1/C=C1\SC(=S)N(Nc2nc(C)cc(C)n2)C1=O | -2.05% |
| Cn1c(N)c(C(=O)COC(=O)/C=C/c2ccc(F)cc2)c(=O)n(C)c1=O | -9.89% |
| COc1cc([C@@H]2c3cc4c(cc3[C@@H](O[C@@H]3O[C@@H]5CO[C@@H](C)O[C@H]5[C@H](O)[C@H]3O)[C@H]3COC(=O)[C@H]23)OCO4)cc(OC)c1O | 15.6% |
| COc1ccc(N(CC(=O)NCc2ccccc2OC)S(=O)(=O)c2ccccc2[N+](=O)[O-])c(OC)c1 | 11.8% |
| O=[N+]([O-])c1cc(S(=O)(=O)Nc2cccc(Cl)c2)ccc1N=Nc1c(O)[nH]c2ccccc12 | 1.82% |
| CCOc1ccc(C(=O)COC(=O)c2cc([N+](=O)[O-])ccc2N2CCOCC2)cc1 | 6.02% |
| COc1ccccc1N1CCN(C(=O)c2cc(-c3ccccc3O)on2)CC1 | 8.86% |
| O=C(c1ccccc1F)N1CCN(S(=O)(=O)c2ccc(Br)cc2)CC1 | -5.95% |
| Cn1c(=O)c2cc(S(=O)(=O)N3CCOCC3)ccc2n(C)c1=O | -10.2% |
| COc1ccc(-c2noc(-c3cccc(Cl)c3)n2)cc1OC | 12.7% |
| CCCCOC(=O)c1ccc(NC(=S)NC(=O)c2c(Cl)cnn2CC)cc1 | 4.3% |
| Cn1c(=O)c2c(nc(N3CCCCC3)n2CC(O)COc2ccccc2)n(C)c1=O (centres unmarked) | 5.96% |
| O=C(O)C1CC=CCC1C(=O)NCCCCc1ccccc1 (centres unmarked) | 13.3% |
| COc1cc(C2C(C(=O)c3cccs3)=C(O)C(=O)N2CCN2CCOCC2)ccc1OCCC(C)C (centres unmarked) | 16.7% |
| COc1cccc(C(=O)N(CN2CCCC2=O)c2cc(C)on2)c1 | 10% |
| Cc1ccc2c(c1)cc(CN(Cc1ccco1)C(=O)N1CCOCC1)c1nnnn12 | -5.64% |
| CCCCn1c(O)c(C(CC)=Nc2ccc(C(=O)O)cc2)c(=O)[nH]c1=O | 15.7% |
| Cc1nc(N2CCN(S(=O)(=O)c3ccccc3)CC2)c2cc(-c3ccccc3)sc2n1 | 2.54% |
| O=C(NCCN1CCN(Cc2ccccc2Cl)CC1)Nc1ccccc1 | -26.3% |
| O=C(N/N=C/c1sc(N2CCCCC2)nc1-c1cccs1)C1CC1 | 6.36% |

Reference: article PMC4336329 (PLoS ONE, 2015)
